Results taken from the supplement of paper PMC4894684.
Where a name gives a salt, the structure may show the parent alone. ± gives the standard deviation of the averaged measurements. The campaign covered roughly 1,000 compounds. About 15 (2%) showed an effect of 50% or more. The list shows a part of the results.

Test system: HFF
Experiment: uninfected host cell viability relative to vehicle control; higher = less host cell toxicity
Conditions: 5 µM; 72 h; oxygen 21 %
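Also: confluent HFF monolayers, run in parallel with the Toxoplasma growth screen as a host toxicity counterscreen.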

| Structure (SMILES) | uninfected host cell viability |
| --- | --- |
| CCOC(=O)C1=C(C)NC(=S)NC1c1cccc(O)c1 (stereo unspecified) [Monastrol] | 84.4 ± 1.9% |
| CC(C)[N+]1(C)[C@@H]2CC[C@H]1C[C@@H](OC(=O)C(CO)c1ccccc1)C2 (stereo partly specified) [Ipratropium bromide] | 96.6 ± 2.7% |
| c1cc(CN2CCCCC2)cc(OCCCNc2nc3ccccc3s2)c1 [Zolantidine dimaleate] | 81.6 ± 1.5% |
| CCOC(=O)[C@@H](C)Oc1cccc2c(=O)n(CC(=O)Nc3ccc4c(c3)OCCO4)ccc12 | 84.7 ± 0.99% |
| CC[C@H](CO)Nc1nc(Nc2cccc(-c3ccccn3)c2)c2ncn(C(C)C)c2n1 [(R)-DRF053 dihydrochloride] | 84.1 ± 1.9% |
| Cc1ccccc1N1CCN(S(=O)(=O)C[C@]23CC[C@H](C[C@@H]2NC(=O)[C@@H](N)CCS(C)(=O)=O)C3(C)C)CC1 [L-368,899 hydrochloride] | 87.07 ± 0.83% |
| CCOC(=O)C1=C(N)Oc2ccc(Br)cc2C1C(C#N)C(=O)OCC (stereo unspecified) | 89.6 ± 2.8% |
| CC(C)c1ccccc1S(=O)(=O)c1cc(N)c2ncccc2c1[N+](=O)[O-] | 73.2 ± 0.84% |
| Clc1ccc2nsnc2c1NC1=NCCN1 [Tizanidine hydrochloride] | 89.9 ± 4.1% |
| COC1CCC(C(=O)c2ccc3nc4c(cc3c2)CCCO4)CC1 (stereo unspecified) | 88.7 ± 4.6% |
| COc1cc(CNC(=O)CCCC/C=C/C(C)C)ccc1O [(E)-Capsaicin] | 88.13 ± 0.59% |
| NC(=O)N/N=C/c1ccc(Oc2ccc(F)cc2)cc1 | 87.6 ± 3.6% |
| C[C@]12CC[C@@H]3c4ccc(O)cc4C[C@@H](CCCCCCCCC[S+]([O-])CCCC(F)(F)C(F)(F)F)[C@H]3[C@@H]1CC[C@@H]2O (stereo partly specified) | 93 ± 4.9% |
| C1CCC(N=C(NC23CC4CC(CC(C4)C2)C3)N2CCOCC2)CC1 | 86.31 ± 0.27% |
| O=C(/C=C/c1ccc(O)c(O)c1)O[C@H](Cc1ccc(O)c(O)c1)C(=O)O [Rosmarinic acid] | 80.3 ± 1% |
| CCC1(c2ccccc2)C(=O)NCNC1=O [Primidone] | 86.1 ± 0.94% |

| Structure (SMILES) | uninfected host cell viability |
| --- | --- |
| COc1ccc(Cl)cc1NC(=O)Nc1cc(C)nc2ccccc12 | 70.73 ± 0.28% |
| CC1OC2(CS1)CN1CCC2CC1 (stereo unspecified) [Cevimeline hydrochloride] | 102 ± 4.3% |
| NC[C@@H]1O[C@H](C23CC4CC(CC(C4)C2)C3)Cc2c1ccc(O)c2O | 85.3 ± 7.3% |
| CC1CCN(CC[C@H]2CCCN2S(=O)(=O)c2cccc(O)c2)CC1 | 88.52 ± 0.33% |
| Oc1cc2c(cc1O)C(c1ccccc1)CNCC2 (stereo unspecified) | 82 ± 1.6% |
| N#C/C(=C\c1ccc(O)c(O)c1)C(=O)NCCCCc1ccccc1 | 84.5 ± 2.7% |
| CN1CCN(CCc2ccc(Cl)c(Cl)c2)CC1 [BD 1063 dihydrochloride] | 101 ± 2.2% |
| Clc1cccc(Cl)c1NC1=NCCN1 [Clonidine hydrochloride] | 86.2 ± 4% |
| CCN(CC)c1ccc(/C=N/NC(=O)c2ccc(O)cc2)cc1 | 86.7 ± 5.1% |
| O=C(O)CCc1ccc(NCc2cccc(Oc3ccccc3)c2)cc1 | 89.2 ± 1.4% |
| CC(=O)O[C@@H]1C[C@H]2C(C)(C)C(=O)C=C[C@]2(C)[C@H]2CC[C@@]3(C)[C@H](c4ccoc4)OC(=O)[C@H]4O[C@]43[C@@]21C [Gedunin] | 107.2 ± 0.78% |
| O=C1NC(=O)c2cc(Nc3ccccc3)c(Nc3ccccc3)cc21 | 93.23 ± 0.27% |
| CN(CCCN1c2ccccc2CCc2ccccc21)CC(=O)c1ccc(Cl)cc1 [Lofepramine] | 89.6 ± 1.2% |
| Cc1noc(NS(=O)(=O)c2cccc3c(N(C)C)cccc23)c1C | 98.4 ± 1.2% |
| O=C(c1ccc(F)cc1)C1CCN(CCn2c(=O)[nH]c3ccccc3c2=O)CC1 [Ketanserin tartrate] | 83.4 ± 6.3% |
